Binding data for one substance are collected here from article PMC4068158.

Chains of the proteins cited; added tags and fusions are not shown. Lines headed by an entry give the natural chain unless they say otherwise; changes in a name come on top. A line that says so, or that is headed by a name, gives the form on record, which may keep a tag or linker.
UniProt Q9UNN5: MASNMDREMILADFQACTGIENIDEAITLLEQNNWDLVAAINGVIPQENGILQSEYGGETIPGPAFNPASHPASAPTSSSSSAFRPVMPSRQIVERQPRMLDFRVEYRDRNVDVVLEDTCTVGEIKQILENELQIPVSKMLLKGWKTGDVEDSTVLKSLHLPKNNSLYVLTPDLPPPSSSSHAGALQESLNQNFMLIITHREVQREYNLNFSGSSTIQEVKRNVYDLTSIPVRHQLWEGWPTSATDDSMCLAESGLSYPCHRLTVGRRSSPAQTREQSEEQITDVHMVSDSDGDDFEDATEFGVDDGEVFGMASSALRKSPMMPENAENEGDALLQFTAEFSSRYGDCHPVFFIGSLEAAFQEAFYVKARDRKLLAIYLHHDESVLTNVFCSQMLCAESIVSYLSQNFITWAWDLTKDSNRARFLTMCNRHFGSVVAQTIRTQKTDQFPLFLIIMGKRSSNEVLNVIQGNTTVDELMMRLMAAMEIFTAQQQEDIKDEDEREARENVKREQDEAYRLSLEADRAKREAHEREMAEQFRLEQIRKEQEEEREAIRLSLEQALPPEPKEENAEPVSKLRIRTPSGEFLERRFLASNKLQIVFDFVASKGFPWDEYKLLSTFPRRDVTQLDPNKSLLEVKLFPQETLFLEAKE
Flag-FAF1 D295A (Q9UNN5, form named): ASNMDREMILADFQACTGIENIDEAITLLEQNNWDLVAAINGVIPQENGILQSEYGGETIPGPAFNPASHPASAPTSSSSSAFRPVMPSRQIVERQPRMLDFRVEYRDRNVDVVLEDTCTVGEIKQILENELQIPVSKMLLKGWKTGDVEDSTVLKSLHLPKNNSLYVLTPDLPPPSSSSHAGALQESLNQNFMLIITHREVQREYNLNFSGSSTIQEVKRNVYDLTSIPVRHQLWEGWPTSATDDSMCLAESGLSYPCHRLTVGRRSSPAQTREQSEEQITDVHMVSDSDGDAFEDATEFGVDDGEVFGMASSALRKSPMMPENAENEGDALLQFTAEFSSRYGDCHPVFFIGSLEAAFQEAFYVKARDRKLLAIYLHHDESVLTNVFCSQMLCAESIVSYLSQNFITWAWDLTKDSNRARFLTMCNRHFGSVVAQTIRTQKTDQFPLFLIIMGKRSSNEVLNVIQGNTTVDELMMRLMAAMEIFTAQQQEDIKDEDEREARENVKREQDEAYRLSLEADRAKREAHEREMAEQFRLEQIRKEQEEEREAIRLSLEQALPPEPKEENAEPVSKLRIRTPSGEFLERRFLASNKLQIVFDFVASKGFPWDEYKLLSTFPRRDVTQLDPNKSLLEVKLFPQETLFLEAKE
Flag-FAF1 E297A (Q9UNN5, form named): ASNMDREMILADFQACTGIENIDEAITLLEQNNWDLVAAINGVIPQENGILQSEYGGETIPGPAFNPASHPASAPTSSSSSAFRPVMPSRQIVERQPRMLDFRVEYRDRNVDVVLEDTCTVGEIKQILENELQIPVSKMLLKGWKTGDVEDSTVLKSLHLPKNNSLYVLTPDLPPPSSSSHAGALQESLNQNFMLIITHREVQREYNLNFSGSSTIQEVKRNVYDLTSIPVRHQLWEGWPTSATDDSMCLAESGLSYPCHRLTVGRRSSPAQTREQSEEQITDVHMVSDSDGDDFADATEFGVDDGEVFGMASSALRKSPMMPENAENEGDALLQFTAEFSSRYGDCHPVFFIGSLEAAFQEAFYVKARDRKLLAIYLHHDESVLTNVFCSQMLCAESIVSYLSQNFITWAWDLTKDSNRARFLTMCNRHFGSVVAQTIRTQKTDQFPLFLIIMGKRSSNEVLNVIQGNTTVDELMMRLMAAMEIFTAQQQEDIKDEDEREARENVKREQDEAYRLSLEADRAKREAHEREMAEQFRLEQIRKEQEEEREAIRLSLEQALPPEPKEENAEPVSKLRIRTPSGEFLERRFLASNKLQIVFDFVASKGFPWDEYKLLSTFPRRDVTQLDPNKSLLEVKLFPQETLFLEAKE
UniProt O95292: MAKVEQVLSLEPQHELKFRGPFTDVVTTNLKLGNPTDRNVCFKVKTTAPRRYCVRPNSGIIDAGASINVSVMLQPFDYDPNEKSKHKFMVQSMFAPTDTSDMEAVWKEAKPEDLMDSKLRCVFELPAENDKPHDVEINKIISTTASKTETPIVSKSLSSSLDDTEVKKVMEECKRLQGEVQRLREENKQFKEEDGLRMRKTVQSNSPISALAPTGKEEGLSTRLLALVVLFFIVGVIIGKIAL

Positions count from the first letter of the chain named. These are yes or no findings as the source states them, for the method shown. In cells and extracts the contact can be indirect. Some binding calls cover weakened binding; strength is not graded here. For some assays here: Where a sequence is shown, tags or fusion partners need not be part of it.

For one experiment, the target named is Flag-FAF1 D295A (human) (UniProt Q9UNN5). As to the kind of experiment: co-IP; anti-Flag M2 beads on lysates of U2OS cells expressing the Flag-tagged bait (transfected or tetracycline-induced); buffer A (50 mM HEPES/KOH pH 7.2, 5 mM Mg(OAc)2, 70 mM KOAc, 0.2% Triton X-100, 10% glycerol, 0.2 mM EDTA), 4°C, 2 hr; endogenous prey by immunoblot; cells untreated, treated with MG132 or with siRNA (FAF1, p97, ASNA1, luciferase) as indicated. Background: A western blot detects proteins with antibodies after separation by electrophoresis.

The target of experiment [1] is T1, Flag-RAB3GAP1 wild type (human) (UniProt Q15042).
T1 sequence: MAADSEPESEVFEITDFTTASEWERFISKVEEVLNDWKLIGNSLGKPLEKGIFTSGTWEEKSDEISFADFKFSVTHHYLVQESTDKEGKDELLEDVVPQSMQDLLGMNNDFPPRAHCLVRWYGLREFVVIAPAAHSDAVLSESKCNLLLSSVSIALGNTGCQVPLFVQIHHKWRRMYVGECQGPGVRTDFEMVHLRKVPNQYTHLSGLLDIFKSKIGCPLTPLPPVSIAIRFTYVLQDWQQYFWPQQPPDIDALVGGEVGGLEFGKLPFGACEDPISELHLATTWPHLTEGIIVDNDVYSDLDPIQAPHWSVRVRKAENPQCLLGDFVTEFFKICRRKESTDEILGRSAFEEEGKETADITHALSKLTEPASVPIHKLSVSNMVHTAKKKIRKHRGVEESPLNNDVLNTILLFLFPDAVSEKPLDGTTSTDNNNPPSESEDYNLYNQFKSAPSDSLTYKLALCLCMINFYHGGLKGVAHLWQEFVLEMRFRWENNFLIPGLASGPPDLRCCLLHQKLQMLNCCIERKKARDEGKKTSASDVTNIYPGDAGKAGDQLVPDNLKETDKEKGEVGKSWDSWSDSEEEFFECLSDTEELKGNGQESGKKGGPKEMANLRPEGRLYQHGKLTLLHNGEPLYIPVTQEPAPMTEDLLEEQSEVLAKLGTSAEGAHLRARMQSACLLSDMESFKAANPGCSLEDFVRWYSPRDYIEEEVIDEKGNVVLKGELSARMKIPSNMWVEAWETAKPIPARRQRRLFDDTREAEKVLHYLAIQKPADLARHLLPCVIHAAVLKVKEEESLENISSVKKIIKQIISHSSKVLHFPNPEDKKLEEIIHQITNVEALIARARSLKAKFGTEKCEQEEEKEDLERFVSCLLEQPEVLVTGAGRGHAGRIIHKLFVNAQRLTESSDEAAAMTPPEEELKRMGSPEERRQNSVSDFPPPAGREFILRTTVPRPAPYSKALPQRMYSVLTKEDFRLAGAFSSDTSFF
Described as above.

Experiment [2] deals with T2, Flag-RAB3GAP1 F585A/F586A (human) (UniProt Q15042).
T2 sequence: T1 sequence with F585A, F586A
The description is as above.

The next experiment deals with Flag-FAF1 E297A (human) (UniProt Q9UNN5). Described as above.
Experiment [3] addresses endogenous FAF1 (human cells) (human (endogenous in U2OS, HeLa, SH-SY5Y)) (UniProt Q9UNN5). The experiment in a line: co-IP; endogenous FAF1 immunoprecipitated from U2OS lysates with sheep anti-FAF1 antibody and Protein A-Sepharose, sheep IgG as control.

For the substance “endogenous VAPB (human cells) (from UniProt O95292 1-243)”, the binding result is on record as “binds” with Flag-FAF1 D295A (human); “binds” in experiment [1]; “no binding” in experiment [2]; “binds” with Flag-FAF1 E297A (human); “binds” in experiment [3].
